Experimental data published in the supplement of paper PMC3334620.
Over roughly 33,000 sequences, “E-score (-0.5 to 0.5)” has its median near -0.056; the highest 2% begin near 0.38. The list shows a part of the results.

Target: Stb4 (UniProt P50104)
Experiment: PBM E-score (8-mer binding enrichment) (E-score (-0.5 to 0.5)); higher = stronger / more preferred TF binding; most listed sequences are background and not binding sites
Conditions: protein concentration: 200 nM; construct: GST-DNA-binding domain
Outline: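 Each ungapped eight-base word and its reverse complement, pooled, received an E-score from the Universal PBM Analysis Suite. Underlying scans, normalised with masliner, recorded fluorescent anti-GST bound to GST-tagged yeast transcription factors. These were applied at about 100-200 nM to universal all-10-mer Agilent arrays double-stranded by primer extension.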

Sequence | PBM E-score
AATAGTTC | 0.0889
TTGCACAA | -0.231
CGATCATC | 0.0839
AAGGCGGT | -0.187
AGGCTAGG | -0.293
AGCATGTG | -0.257
TACGCGAA | -0.0547
CATGATGA | -0.115
ATATTCAG | -0.0357
CCCACCAG | 0.0126
ATGAGTCA | -0.329
AATCAGGG | -0.3
ACGGGACG | 0.148
GTCAGCGA | -0.138
GCACCCCA | -0.0865
ATGAATTG | -0.117
AGGTCTAA | -0.0189
ACATGCCC | 0.0171
ACAATCGC | 0.105
CCCGTAGA | 0.0742
ACCACGGT | -0.239
CAAGTCCG | 0.235

Sequence | PBM E-score
AAATATGT | 0.121
AAAATACT | 0.106
CAATAGAC | -0.113
GAGAGGGA | -0.252
ATCCCTAC | 0.00797
AGCTAACA | -0.168
AGGCCAAT | -0.0819
CCGTTAGG | -0.0244
ACATCCCA | -0.0846
GACGCCCA | -0.0691
AACTAAGG | -0.138
AAGGCGTG | -0.0449
GGCTTTGA | 0.116
CGACCCTC | 0.0659
GAGAAGCA | -0.105
CTAATAAA | -0.162
AGGCGAAC | -0.0728
TGTGAACA | 0.0207
GTCGACAC | -0.074
CATCGTAC | -0.0164
TACGTAAA | -0.25
CACCTTAA | -0.141

Sequence | PBM E-score
GTGTTGGA | -0.162
CGGGTCAA | 0.359
CCAGCCCC | -0.0533
TGGTCAAA | -0.0528
AATTATGG | -0.148
TGGGTCAA | -0.18
CGACGACG | 0.0487
CATCCGCA | 0.314
CTTTATTA | -0.231
AAACTTAT | 0.179
AGGCAAGA | -0.222
ATCTCTTC | 0.0477
ACTCGCGC | 0.037
CGAAAATA | 0.153
GAGAGTTA | -0.185
CCATTACC | 0.132
AGATCAGC | 0.0618
CAAGCTAG | -0.288
CGCGACGA | 0.0313
AGGTCGCC | 0.00267
AGAGTAGA | -0.0101
CAAACACA | -0.0699

Sequence | PBM E-score
CACGTTCC | 0.0197
ATGAAGCG | -0.113
ACCGGTTC | 0.216
CATCTAGC | -0.257
CCAATGGG | -0.161
AGACCTTA | -0.0348
TATAATAA | 0.0527
TTTCCAAA | 0.00512
AGATTACG | 0.14
AATTTATG | 0.165
CACGGCCG | 0.225
GATTTTGA | 0.15
CATACGCA | 0.02
AGGACGAC | -0.151
GTTGATGA | -0.134
ACTCATGA | -0.138
TATATAAA | -0.023
ACCTCACC | -0.0803
CATTCTCA | 0.0317
AACAGTAG | -0.0759
CGCCCCTA | 0.101
CGGACTGA | 0.132

Sequence | PBM E-score
GTAACACA | 0.0469
CGTACTGA | -0.0158
CAAGAGAA | 0.0429
ACGACGTC | -0.148
CGATCGGC | 0.273
GGACTAAA | 0.0483
AAAGTCGC | 0.0621
AATCAGAG | -0.105
ATCTATCG | -0.0843
ATTTTCTG | -0.0503
AAGCCCCA | -0.168
ACGGAGCT | 0.0791
AGCAAGTC | -0.169
ATAACTGC | -0.044
CGGCTTTA | 0.264
GCCCCGCA | 0.0354
ACAGCACA | -0.0101
AACTAACG | 0.0873
ACCTGTCT | -0.197
ACTTAGCT | -0.251
ATCTGTAA | 0.0162
